Like-named read-outs stand apart in the source and are kept apart here.
Columns and labels:
human α2C‐adrenoceptor [1] = biological target: T1, human α2C‐adrenoceptor (Homo sapiens, UniProt P18825); assay: ^3H‐rauwolscine whole cell competition binding, CHO‐α2C cells; conditions: ratio of KD values
T1 sequence (P18825 1-462): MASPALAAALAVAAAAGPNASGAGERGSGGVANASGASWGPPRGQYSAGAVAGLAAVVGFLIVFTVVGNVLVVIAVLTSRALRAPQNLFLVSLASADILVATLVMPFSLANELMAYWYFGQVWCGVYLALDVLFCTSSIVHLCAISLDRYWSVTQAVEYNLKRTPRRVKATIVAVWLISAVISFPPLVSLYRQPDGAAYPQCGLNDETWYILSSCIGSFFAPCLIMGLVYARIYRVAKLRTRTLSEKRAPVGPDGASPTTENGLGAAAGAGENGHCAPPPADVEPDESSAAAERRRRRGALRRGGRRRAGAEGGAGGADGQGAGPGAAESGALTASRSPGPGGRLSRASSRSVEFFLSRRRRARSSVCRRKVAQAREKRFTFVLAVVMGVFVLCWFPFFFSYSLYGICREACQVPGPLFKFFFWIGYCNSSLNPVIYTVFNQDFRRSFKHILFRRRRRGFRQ

human α2B‐adrenoceptor [2] = biological target: T2, human α2B‐adrenoceptor (Homo sapiens, UniProt P18089); assay: ^3H‐rauwolscine whole cell competition binding, CHO‐α2B cells; conditions: ratio of KD values
T2 sequence (P18089 1-450): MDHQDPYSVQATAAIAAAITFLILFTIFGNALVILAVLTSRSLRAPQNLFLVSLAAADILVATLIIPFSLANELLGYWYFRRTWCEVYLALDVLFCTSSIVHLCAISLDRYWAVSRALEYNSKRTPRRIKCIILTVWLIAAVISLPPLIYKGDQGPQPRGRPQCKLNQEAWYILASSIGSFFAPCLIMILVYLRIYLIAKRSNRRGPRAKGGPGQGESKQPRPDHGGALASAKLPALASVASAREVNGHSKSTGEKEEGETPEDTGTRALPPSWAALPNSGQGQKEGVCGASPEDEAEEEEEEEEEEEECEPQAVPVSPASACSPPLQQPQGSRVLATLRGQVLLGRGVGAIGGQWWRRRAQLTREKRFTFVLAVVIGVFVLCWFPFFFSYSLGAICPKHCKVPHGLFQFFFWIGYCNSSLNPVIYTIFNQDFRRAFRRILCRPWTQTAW

human β1‐adrenoceptor = human β1‐adrenoceptor (Homo sapiens, UniProt P08588); conditions: for Log KD β1: mean ± s.e.mean
human α2C‐adrenoceptor [3] = biological target: T1, human α2C‐adrenoceptor
human α2B‐adrenoceptor [4] = biological target: T2, human α2B‐adrenoceptor; assay: ^3H‐RX821002 whole cell competition binding, CHO‐α2B cells; conditions: ^3H‐RX821002 as radioligand; living CHO cells; log values, mean ± s.e.mean; ^app = apparent KD
human α2B‐adrenoceptor [5] = biological target: T2, human α2B‐adrenoceptor
human α2C‐adrenoceptor [6] = biological target: T1, human α2C‐adrenoceptor; assay: ^3H‐RX821002 whole cell competition binding, CHO‐α2C cells; conditions: ^3H‐RX821002 as radioligand; living CHO cells; log values, mean ± s.e.mean
human α2A‐adrenoceptor [7] = biological target: T3, human α2A‐adrenoceptor (Homo sapiens, UniProt P08913); assay: ^3H‐rauwolscine whole cell competition binding, CHO‐α2A cells; conditions: ratio of KD values
T3 sequence (P08913 1-465): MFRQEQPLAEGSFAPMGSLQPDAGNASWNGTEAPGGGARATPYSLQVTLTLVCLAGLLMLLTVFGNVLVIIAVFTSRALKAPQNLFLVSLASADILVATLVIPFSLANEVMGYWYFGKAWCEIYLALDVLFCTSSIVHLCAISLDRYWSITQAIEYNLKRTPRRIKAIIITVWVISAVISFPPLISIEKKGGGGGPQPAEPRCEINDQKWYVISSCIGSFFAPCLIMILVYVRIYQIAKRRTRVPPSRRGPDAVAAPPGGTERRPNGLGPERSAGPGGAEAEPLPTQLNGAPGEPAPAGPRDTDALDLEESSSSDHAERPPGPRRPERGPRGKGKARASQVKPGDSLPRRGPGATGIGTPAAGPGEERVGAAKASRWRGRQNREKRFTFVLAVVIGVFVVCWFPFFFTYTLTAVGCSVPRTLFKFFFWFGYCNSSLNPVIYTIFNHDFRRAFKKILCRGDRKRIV

human α2A‐adrenoceptor [8] = biological target: T3, human α2A‐adrenoceptor; assay: ^3H‐RX821002 whole cell competition binding, CHO‐α2A cells; conditions: ^3H‐RX821002 as radioligand; living CHO cells; log values, mean ± s.e.mean; ^app = apparent KD from extrapolated curve
human α2A‐adrenoceptor [9] = biological target: T3, human α2A‐adrenoceptor

Sequence of human β1‐adrenoceptor (P08588 whole entry): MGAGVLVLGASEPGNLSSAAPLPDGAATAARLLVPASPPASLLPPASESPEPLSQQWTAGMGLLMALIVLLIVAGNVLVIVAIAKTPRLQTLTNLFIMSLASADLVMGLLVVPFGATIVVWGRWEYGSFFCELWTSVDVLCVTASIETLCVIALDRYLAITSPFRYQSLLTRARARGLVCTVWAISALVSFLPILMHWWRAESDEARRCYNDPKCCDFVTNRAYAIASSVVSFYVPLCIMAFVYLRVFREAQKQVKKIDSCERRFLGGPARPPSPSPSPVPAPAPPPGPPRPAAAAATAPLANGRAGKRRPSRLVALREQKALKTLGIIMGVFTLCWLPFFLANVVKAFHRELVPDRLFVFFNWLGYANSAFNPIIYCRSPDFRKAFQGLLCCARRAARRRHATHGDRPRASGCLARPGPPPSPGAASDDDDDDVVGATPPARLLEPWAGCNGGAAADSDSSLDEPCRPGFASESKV

Row | Selectivity ratio α2A vs α2C (higher affinity for α2C) (human α2C‐adrenoceptor [1]) | Selectivity ratio α2A vs α2B (higher affinity for α2B) (human α2B‐adrenoceptor [2]) | Selectivity ratio α2B vs α2C (higher affinity for α2B) (human α2B‐adrenoceptor [2]) | IC50 (log) β1, IC50>top concentration used (human β1‐adrenoceptor; ^3H‐CGP12177, log value) | Kd (human α2C‐adrenoceptor [3]) [nM] | Log KD α2B (human α2B‐adrenoceptor [4]) | Selectivity ratio α2B vs α2C (higher affinity for α2C) (human α2C‐adrenoceptor [1]) | Kd (human α2B‐adrenoceptor [5]) [nM] | Log KD α2C (human α2C‐adrenoceptor [6]) | Selectivity ratio α2A vs α2B (higher affinity for α2A) (human α2A‐adrenoceptor [7]) | Selectivity ratio α2A vs α2C (higher affinity for α2A) (human α2A‐adrenoceptor [7]) | Log KD α2A (human α2A‐adrenoceptor [8]) | Kd (human α2A‐adrenoceptor [9]) [nM] | Log KD β1 (human β1‐adrenoceptor; ^3H‐CGP12177 whole cell binding, log values, ^app = apparent KD, 'no binding to' = log top concentration) | Log KD β1 (human β1‐adrenoceptor; given as log KD (negative values), 3H-CGP12177 whole cell binding, CHO cells) | SMILES
1 | 18.2 | 21.4 | 1.2 | IC50>−5 | – | – | – | – | – | – | – | – | – | – | – | COc1ccccc1N1CCN(CCN2C(=O)c3ccccc3C(C)(C)C2=O)CC1 [ARC239]
2 | – | – | – | – | 603 | −5.59 ± 0.05 | 6.5 | 3890 | −6.32 ± 0.09 | 60.3 | 9.3 | −7.24 ± 0.05 | 64.6 | No binding to −3 | No binding to -3 | CC1c2ccccc2CN1CC1=NCCN1 (stereo not drawn) [BRL44408]

From PMC8882856, “The affinity and selectivity of α‐adrenoceptor antagonists, antidepressants and antipsychotics for the human α2A, α2B, and α2C‐adrenoceptors and comparison with human α1 and β‐adrenoceptors” (Pharmacology Research & Perspectives, 2022)
